Measurements reported in patent US20160090578A1, “ENZYMES CATALYZING THE GLYCOSYLATION OF POLYPHENOLS” (priority 2013, published 2016).

Tested on: MgtS
Test: Biotransformation (whole cell catalysis) with E. coli BL21(DE3) pET19b::mgtS and biocatalysis with enzyme
From the text: The supernatant was applied in TLC analysis.
These samples were used directly for quantitative TLC analysis.

SMILES	Reaction in biotransformation and biocatalysis with MgtS
Cc1cc(=O)oc2cc(O)ccc12 [4-Methylumbelliferone, 7-Hydroxy-4-methylcoumarin]	shown
O=c1cc(-c2ccc(O)c(O)c2)oc2cc(O)cc(O)c12 [Luteolin]	shown
O=c1c(O)c(-c2ccc(O)c(O)c2)oc2cc(O)cc(O)c12 [Quercetin]	shown
O=c1cc(-c2ccc(O)cc2)oc2cc(O)cc(O)c12 [apigenin]	shown
COc1cc([C@@H]2CC(=O)c3c(O)cc(O)cc3O2)ccc1O [homoeriodytiol]	shown
Cc1cc(=O)c2c(O)cc(O)cc2o1 [noreugenin]	shown
O=C(CCc1ccc(O)cc1)c1c(O)cc(O)cc1O [phloretin]	shown
